Values joined by “and” are separate entries in the source; they are usually repeats but may differ in a detail not shown here. Equal entries are not always repeated. Out of some 270,000 compounds screened, about 5,800 (2.1%) were called active. The shares of active, inactive and inconclusive entries below differ from those in the screen. The call rests on the fitted dose curve; in most records, active means well fitted inhibition curve with a large enough effect; inconclusive means small, poorly fitted or top-dose-only effect; inactive means flat fitted curve, though single readings scatter. Potencies beside an inconclusive call are fits to weak or partial responses and may not hold up.
These compounds were tested against Microtubule-associated protein tau (Homo sapiens) (UniProt P10636) (assay: qHTS for Inhibitors of Tau Fibril Formation, Thioflavin T Binding). Conditions: recombinant tau K18 P301L (four-repeat tau fragment), heparin-induced fibrillization, ThT fluorescence; series mostly up to 57.4 µM.
Sequence of UniProt P10636 (P10636 whole entry, looked up, the tested form may be a part): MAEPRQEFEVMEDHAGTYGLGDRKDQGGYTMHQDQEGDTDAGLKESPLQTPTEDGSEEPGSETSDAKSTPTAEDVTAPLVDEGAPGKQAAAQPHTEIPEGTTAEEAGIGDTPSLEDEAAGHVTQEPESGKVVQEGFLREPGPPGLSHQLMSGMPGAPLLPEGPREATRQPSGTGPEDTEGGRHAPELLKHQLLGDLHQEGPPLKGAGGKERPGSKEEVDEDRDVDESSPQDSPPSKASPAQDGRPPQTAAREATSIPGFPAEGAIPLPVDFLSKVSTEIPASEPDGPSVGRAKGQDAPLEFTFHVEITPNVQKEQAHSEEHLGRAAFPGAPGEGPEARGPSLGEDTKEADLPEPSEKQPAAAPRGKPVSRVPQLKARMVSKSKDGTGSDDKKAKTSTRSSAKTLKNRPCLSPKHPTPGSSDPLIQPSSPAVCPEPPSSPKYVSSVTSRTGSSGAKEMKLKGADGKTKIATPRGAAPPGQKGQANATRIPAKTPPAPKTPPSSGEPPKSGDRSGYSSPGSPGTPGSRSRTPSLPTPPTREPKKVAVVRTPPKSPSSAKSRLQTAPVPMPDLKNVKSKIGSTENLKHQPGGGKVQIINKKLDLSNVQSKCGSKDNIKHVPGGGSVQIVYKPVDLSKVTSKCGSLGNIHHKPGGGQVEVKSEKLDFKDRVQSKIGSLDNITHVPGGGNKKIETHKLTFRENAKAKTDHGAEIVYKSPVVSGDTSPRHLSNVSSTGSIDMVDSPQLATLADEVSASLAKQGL
In short: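 Aggregation was driven by heparin (20 uM final) acting on recombinant tau […] bearing P301L in 100 mM sodium acetate pH 7; fibrils were detected with Thioflavin T.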
Further: nearly all actives have a fitted effect of over 55% in size.
Potency means the concentration at half of the fitted maximal effect; tags describe the fitted curve by direction and shape.

Row | SMILES | Potency
1 | COc1ccccc1NC(=O)C1=C(C)NC2=C(C(=O)CC(c3ccc(OC)c(OC)c3)C2)C1c1coc2ccccc2c1=O (stereo not given) | inactive
2 | CC(C)n1cc(NC(=O)c2cc(-c3ccccc3)on2)cn1 | inconclusive: 14.1 µM [inhibitor, partial curve]
3 | COCCn1nc2cc(C(=O)NCC34CC5CC(CC(C5)C3)C4)ccc2c1OC | inactive
4 | C(=Nc1ccc(N2CCOCC2)cc1)c1c[nH]c2ccccc12 | active: 25.1 µM
5 | COc1ccc(NCc2nc3ccccc3n2CCOc2ccc(C)cc2)cc1 | inconclusive: 15.8 µM [inhibitor, partial curve] and inconclusive: 14.1 µM [inhibitor, partial curve]
6 | O=C(Nc1ccc(F)c([N+](=O)[O-])c1)C(=O)c1c(O)[nH]c2ccccc12 | inconclusive: 17.8 µM [inhibitor, partial curve]
7 | N#Cc1nc(-c2ccco2)oc1NCc1cccnc1 | inactive
8 | S=c1[nH]nc(-c2ccncc2)n1/N=C/c1ccccc1 | inactive
9 | C=CCOc1c(Br)cc(CNc2ccc(NC(=O)C(C)C)cc2)cc1OCC | inconclusive: 28.2 µM [inhibitor, single point]
10 | O=S(=O)(c1ccc(Cl)c(Cl)c1)c1snnc1-c1ccccc1 | inconclusive: 15.8 µM [inhibitor, partial curve]
11 | CCCN(C(=O)Cn1c(=O)oc2cc(Cl)ccc21)c1ccc(C(C)C)cc1 | inconclusive: 15.8 µM [inhibitor, partial curve]
12 | Cc1ccc2occ(C3N[C@H](C(=O)O)CS3)c(=O)c2c1 (stereo not given in full) | inconclusive: 35.5 µM [inhibitor, partial curve]
13 | CCOC(=O)C1CCCN(C(=O)c2ccc3c(c2)N(Cc2cccc(Cl)c2)C(=O)c2ccccc2S3(=O)=O)C1 (stereo not given) | inactive
14 | Cc1cc(N(C)C)ccc1N=Nc1ccc2ncccc2c1 | active: 0.501 µM
15 | COC(=O)[C@@]1(Cc2ccccc2)[C@H]2c3cc(C(=O)N4CCCC4)n(CCN4CNCC4=O)c3C[C@H]2CN1C(=O)c1ccccc1 | inactive
16 | O=C(Nc1nc2ccc(Cl)cc2s1)c1ccc(S(=O)(=O)N2CCCC2)cc1 | inactive
17 | O=C(COc1ccc(F)cc1)Nc1nccs1 | inactive
18 | CCOc1ccc(CN2CCN(CC(O)Cn3c4ccccc4c4ccccc43)CC2)cc1 (stereo not given) | inconclusive: 17.8 µM [inhibitor, partial curve]
19 | Oc1ccccc1Oc1c(F)c(F)nc(N2CCCC2)c1F | inconclusive: 35.5 µM [inhibitor, single point]
20 | Cn1cc(NC(=O)c2cc(NC(=O)c3cc(NC=O)cn3C)cn2C)cc1C(=O)NCCC(=N)N | inconclusive: 31.6 µM [inhibitor, partial curve, poor fit]
21 | CCOc1ccc(/C=N/n2cc(-c3ccccc3)[nH]c2=S)cc1 | inconclusive: 2.51 µM [inhibitor, full curve]
22 | CCOC(=O)C1=C(N)N2C(=O)C(C)SC2=C(C(=O)OC)C1c1ccccc1OC (stereo not given) | inconclusive: 14.1 µM [inhibitor, partial curve, poor fit]
23 | COC/C=C/C1=CC2=CC(=O)C(C)(OC(=O)c3cnc4ccccc4n3)C(=O)C2=CN1CCc1c[nH]c2ccccc12 (stereo not given) | inconclusive: 3.55 µM [inhibitor, single point]

Row | SMILES | Potency
24 | N#Cc1c(-c2ccccc2)nc(SCC(=O)N(c2ccccc2)c2ccccc2)[nH]c1=O | inconclusive: 28.2 µM [inhibitor, single point]
25 | O=C(NCc1noc2ccccc12)Nc1ccc(F)cc1F | inactive
26 | Cc1cc(C(=O)CSc2ncccn2)c(C)n1-c1cccc(F)c1 | inconclusive: 28.2 µM [inhibitor, single point]
27 | Clc1ccc(C2=C3CCCCn4c(-c5ccccc5)c[n+](c43)C2)cc1 | inconclusive: 20 µM [inhibitor, partial curve]
28 | COc1ccc(-c2nnc(SCC(=O)Oc3cccc(C)c3C)o2)cc1 | inactive
29 | Cn1c(=O)c(-c2ccccc2N)nc2ccccc21 | inconclusive: 39.8 µM [inhibitor, single point]
30 | CCCOc1ccccc1C1CC(=O)Nc2cc3c(cc21)OCCO3 (stereo not given) | inactive
31 | O=[N+]([O-])c1ccccc1N/N=C\c1ccccc1F | inconclusive: 1.41 µM [inhibitor, full curve]
32 | COc1cccc(OC)c1C(=O)Nc1nc2ccc([N+](=O)[O-])cc2s1 | inconclusive: 39.8 µM [inhibitor, single point]
33 | CCCn1c(O)c(/C=C2\C=NN=C2c2ccccc2)sc1=S | inactive
34 | O=C(CNS(=O)(=O)c1ccccc1)NCC(=O)OCc1ccc(C(=O)c2ccccc2)cc1 | inactive
35 | Cc1cc(Nc2cc(Cl)ccc2C)n2nc(Cc3ccccc3)nc2n1 | inactive
36 | Cn1ccnc1Sc1nc2ccccc2nc1NS(=O)(=O)c1ccccc1 | inactive
37 | COC(=O)Nc1sc2c(c1C(N)=O)CCC(C)C2 (stereo not given) | inconclusive: 15.8 µM [inhibitor, partial curve, poor fit]
38 | COc1ccc(CNC(=O)Cc2coc3ccc(C(C)C)cc23)cc1 | inconclusive: 12.6 µM [inhibitor, partial curve]
39 | Cc1cc(C)c(S(=O)(=O)NCC(c2ccc(N(C)C)cc2)N2CCc3ccccc32)c(C)c1 (stereo not given) | inconclusive: 10 µM [inhibitor, partial curve]
40 | Cc1ccccc1C(=O)NNC(=S)NC(=O)c1ccc(Cl)cc1Cl | inconclusive: 31.6 µM [inhibitor, single point]
41 | CCOc1cc2c(C#N)c(N3CCOCC3)nc(N)c2c(N)n1 | inactive
42 | CCOC(=O)C1=C(CN2CCN(c3cc(C)ccc3C)CC2)NC(=O)NC1c1ccccc1 (stereo not given) | inactive
43 | Cc1ccc2c(c1)c1c(c(=O)n(-c3ccccc3)c(=O)n1CC(=O)NCCC1=CCCCC1)n2C | inactive
44 | COc1ccc(-n2cc(C(=O)NCc3ccc(Cl)cc3)c3ccccc3c2=O)cc1 | inconclusive: 2.82 µM [inhibitor, full curve, poor fit]
45 | COc1ccc2nc(N(Cc3cccnc3)C(=O)c3ccco3)sc2c1 | inactive

From PubChem BioAssay AID1460 (National Center for Advancing Translational Sciences (NCATS), 2008)
